Test results taken from the supplement of paper PMC3334620.
Over roughly 33,000 sequences, “E-score (-0.5 to 0.5)” has its median near -0.054; the highest 2% begin near 0.39. The list shows a part of the results.

The sequences below were run against Ylr278c (UniProt Q05854) (assay: PBM E-score (8-mer binding enrichment) (E-score (-0.5 to 0.5)); higher = stronger / more preferred TF binding; most listed sequences are background and not binding sites). Conditions: protein concentration: 200 nM; construct: GST-DNA-binding domain.
Protocol: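 Universal 'all 10-mer' protein binding microarrays (Agilent AMADID 015681) probed with GST-tagged S. cerevisiae TFs (full-length or DBD) made by in vitro transcription/translation (PURExpress), about 100-200 nM. Bound TF was detected with fluorescent anti-GST. Each ungapped 8-mer (which stands for itself and its reverse complement) is scored by the PBM enrichment score (E-score), a modified Wilcoxon-Mann-Whitney statistic from -0.5 to +0.5, computed with the Universal PBM Analysis Suite. Scale: above 0.35 generally sequence-specific binding.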

Row | Sequence | PBM E-score
1 | CCAGCAAG | -0.203
2 | CCTATGCC | -0.178
3 | CACGGCCA | 0.108
4 | TGCGGTAA | 0.0538
5 | CCGACGAG | 0.253
6 | CGGGGCAG | 0.149
7 | CTTGAATC | -0.16
8 | CTGGAGGA | -0.293
9 | CAAGATCC | 0.167
10 | CACCCAAG | -0.104
11 | GAGAACTA | -0.1
12 | TCATAGCA | -0.308
13 | TACCCCCA | -0.199
14 | AGCCTTAC | -0.198
15 | CGTGCTGA | -0.224
16 | AACCTAGG | -0.102
17 | GCCGGGAA | 0.329
18 | AAACGACG | -0.0198
19 | CAGCATCC | 0.11
20 | CCGAGGGC | 0.326
21 | GATCCTGA | 0.0205
22 | CTACTACC | 0.0471

Row | Sequence | PBM E-score
23 | TGCCTTAA | -0.26
24 | ACACGTAA | -0.101
25 | GGTTAAAA | -0.0491
26 | GGGAGACC | -0.0886
27 | GTGATGTA | -0.0394
28 | AACCCGCC | 0.19
29 | CTCACGCC | 0.0239
30 | GTACAGAA | -0.0383
31 | CACACTGA | -0.31
32 | ATATAGGG | -0.0639
33 | GTCGCCCA | -0.197
34 | CTTGTCAC | -0.238
35 | CGTGGGTA | -0.0486
36 | CTGAGTCC | 0.00022
37 | AGATGTGG | -0.171
38 | AGCATGAC | -0.246
39 | AATCGATC | -0.00877
40 | GCAAGTAC | -0.0843
41 | GAAAGGGC | -0.157
42 | AAGACAAG | 0.0245
43 | TTCTCCAA | -0.115
44 | GCAAGGCC | 0.0928

Row | Sequence | PBM E-score
45 | CGCTAACG | 0.0473
46 | CCTAAACA | -0.149
47 | ATATCCAA | -0.07
48 | CCGAGCGC | 0.323
49 | AATTGTTC | 0.129
50 | TAGTCTAA | -0.197
51 | ATCCTAGA | -0.0621
52 | AGGGTACG | -0.201
53 | ACAGTAGA | -0.133
54 | CAGTAGGG | -0.16
55 | ATAGTCGG | 0.156
56 | GGCGCGGA | 0.352
57 | ACGTCCCC | 0.0469
58 | AGTGTGAC | -0.323
59 | CAGTGCGA | -0.174
60 | CCGAAGCC | 0.311
61 | AGCTGATG | -0.0496
62 | CCGGACTC | 0.43
63 | CAGTACAG | -0.115
64 | AATTAGTC | 0.0276
65 | AATCCCCT | -0.0962
66 | GCCCAACA | -0.279

Row | Sequence | PBM E-score
67 | CAGGCTTC | 0.0948
68 | ACTGGTCA | -0.184
69 | GATTATAA | 0.0727
70 | AGCGGTAC | -0.0549
71 | AAAGGATA | 0.0449
72 | ATTGAGAG | 0.0544
73 | AAGGGCAT | -0.327
74 | AGTCCGAT | 0.458
75 | AATCACAA | -0.181
76 | GTCTCAAC | -0.136
77 | CGGCTCAC | 0.124
78 | CCGGGGAA | 0.399
79 | CGCGAGCC | 0.236
80 | AATGGAAA | 0.0659
81 | GCAGAGAA | -0.11
82 | GCCGGTCC | 0.343
83 | ACTCCTGC | 0.165
84 | AAGCAGAG | -0.22
85 | ATCTCGGG | 0.278
86 | GCAGACCA | -0.063
87 | ACGCGACA | -0.0728
88 | GCACTTTA | -0.0387

Row | Sequence | PBM E-score
89 | CATCTTAG | -0.151
90 | GTTTACCA | -0.0602
91 | ATCGATAG | -0.235
92 | ATCACCTC | -0.0689
93 | GTAGGGGA | -0.00705
94 | ATGCCAAT | -0.164
95 | AGCGTCCC | -0.123
96 | GAATAAAC | 0.0403
97 | ACGCGACT | -0.131
98 | GCGTGGTA | 0.0276
99 | ACGAGGAA | -0.0559
100 | CCGTCGCA | 0.249
101 | CAATACGG | 0.19
102 | CATTCGGG | 0.202
103 | AGCAAGTG | -0.312
104 | ACTAGCTC | -0.157
105 | CCGTCTCA | 0.0735
106 | GCGCGTCA | 0.0214
107 | AATTTATA | -0.0303
108 | CATGAAGG | -0.145
109 | ATTGGAGG | -0.102
110 | ATGCGACC | 0.224
